The other results are listed elsewhere or left out.

The chains are these.
T1: UNK ZnF1-3 (human, UniProt Q9C0B0 31-174)
T1 sequence: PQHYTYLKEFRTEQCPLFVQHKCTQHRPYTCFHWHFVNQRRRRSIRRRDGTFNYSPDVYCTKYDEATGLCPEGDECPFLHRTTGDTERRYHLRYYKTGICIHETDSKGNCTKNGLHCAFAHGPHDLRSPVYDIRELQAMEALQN

B1: chr13:100211666:100211667:-_ENSMUSG00000052727_ENSMUST00000064762|mus_hu|motif|central (ssRNA)
RNA: GGGAGUUCUACAGUCCGACGAUCGUUGGCAGGAUGGGUGGUGCUUAGUAACUCCCCGAUCUCUUGAUCGGUGAAAAUCUCGGUGAAGUUCUGGAAGGAGAAAGAGCCGGACUGGAGAAUGAGCUCUCCGGUAUUUUCAAAGCACAACAGAGGAUUGAGCAUCA
B2: chr5:65459698:65459699:+_ENSG00000153914_ENST00000334121|hu_hu|FALSE|FALSE (ssRNA)
RNA: GGGAGUUCUACAGUCCGACGAUCCAUUACUUCUUCUAACUCCUUAGCUGCAGCCUGAGGUGUCAUCUCAGGGGGUUUUACUAUUGCAUUGUUGGAGUGAUUUAUUUUCAGUGGCCUGUCUCCAAACAUAACUCCAUUAAAAGCCAACAGAGGAUUGAGCAUCA
B3: chr3:49759264:49759265:-_ENSG00000173540_ENST00000308388|hu_hu|motif|central (ssRNA)
RNA: GGGAGUUCUACAGUCCGACGAUCGCCAAUAGACUUGUGGGGCAGCACGCUGGCUCCGUUGAGGUAGAGCUCAUCAUUAACGGUGACGUCCUCACCCAGCACUGUCACGUUCUCCAUGCGUACCCACUGACCCACGCGGCAGCGCAACAGAGGAUUGAGCAUCA
B4: 121206833_121220548_975_CDS_ENSG00000157837_ENST00000353487|human|control|control (ssRNA)
RNA: GGGAGUUCUACAGUCCGACGAUCCAUGGCGACACAGAGGCCCAUGGCCAGUGCAUCCAUGAGAAGCCAAUGGCCAGUGAGAACCCAGAUGAGGACGAGCAUGACAGACAGAGAGAAUGACAGCAACUCAGCAGCAGUGAAACGCAACAGAGGAUUGAGCAUCA
B5: chr7:127875444:127875445:+_ENSMUSG00000046096_ENSMUST00000060175|mus_mus|FALSE|FALSE (ssRNA)
RNA: GGGAGUUCUACAGUCCGACGAUCACGUGUGUAAAGCAUUAGAGGGAAUAUUGUAUUGCUUAAGAGUUUGGUGAAGAUCUACUAAUACAGAUAAAAUGCGAUUUUUAUGGAAGAGCAGAACUAGUGUUGUAAAUAGCCAAAACACAACAGAGGAUUGAGCAUCA
B6: chrX:77158196:77158197:+_ENSG00000131174_ENST00000481445|hu_mus|FALSE|FALSE (ssRNA)
RNA: GGGAGUUCUACAGUCCGACGAUCUCCAAUUUGUGUGGCUGUAUAUGUCCAUGUAGAAACACAGAAGAUGGCUCCACCUGCUAAUAUAGCAUUCCCAUAUUUGUCAUGGAAACUAGGUGCCCUCUUCUGGUGGCUCUGCCUUGCCAACAGAGGAUUGAGCAUCA
B7: chr9:110451855:110451856:+_ENSMUSG00000044791_ENSMUST00000153838|mus_hu|motif|central (ssRNA)
RNA: GGGAGUUCUACAGUCCGACGAUCAACUGGCAUAGACAUGAGUUUAUCUUGGUGUGGUGACACCAGAGGUUCUGUUUCUCGGAAUGGGCUUUCUGACUUCUUAUGCAGCAUGCAGGUAUCAUCCAAGUCUUUUUCUUUGCACCUCAACAGAGGAUUGAGCAUCA
B8: 75303403_75303614_765_CDS_ENSMUSG00000020850_ENSMUST00000018449|mouse|control|control (ssRNA)
RNA: GGGAGUUCUACAGUCCGACGAUCUAAGAUGUUGUCGGCAUAAUCCAGGGGCGGUUCCUCGUCAUCGAAAGGGGGGAAACGCAUCCUCUUGAAAUGCCUCCUGUCUCUUUUUUCUCUACGCAUCAUGAUCCACAUUGACCCCCACAACAGAGGAUUGAGCAUCA
B9: chr16:17428906:17428907:+_ENSMUSG00000022765_ENSMUST00000023449|mus_hu|motif|central (ssRNA)
RNA: GGGAGUUCUACAGUCCGACGAUCGCGGGGACAUCUGCCAACAAAAGAGCAAGAUGGCACACUCUAUUUCCCAUUCGGACACUGAUCCUUUCUGGGAGGAUGAAAGAAUCACAGAUAAUGUGCUCAGAGAGUGUGUGUGUGUGUCAACAGAGGAUUGAGCAUCA
B10: chr1:225611761:225611762:-_ENSG00000143815_ENST00000272163|hu_mus|hu_hu_hu_mus_True|8_58 (ssRNA)
RNA: GGGAGUUCUACAGUCCGACGAUCCCAGGCCAUCGGCCUCUGACCACUUCACCCUCAACAAACUUCCUACUUGGCAUUUUCUAUAAUUAGUCUGGCCGCGCUCCGGCGGGAACUCCAGCCACUCCAGGGAGAAUAGUAGCAGCCCAACAGAGGAUUGAGCAUCA
B11: chrX:102931257:102931258:-_ENSG00000123562_ENST00000441076|hu_mus|FALSE|FALSE (ssRNA)
RNA: GGGAGUUCUACAGUCCGACGAUCUAAUGCCAGGCUUUUCUCAUCAAGGGGCGUAUAGGCCAACAUUGCCCCAAUUCUCACGAAUAAUCUCAGGAGGUGUGGCGCCCCAUAGAUCUGCGACAUCGGCGCAUCAGGGUGAGCCAGCAACAGAGGAUUGAGCAUCA
B12: 75418379_75418499_4881_3pUTR_ENSMUSG00000032186_ENSMUST00000064433|mouse|control|control (ssRNA)
RNA: GGGAGUUCUACAGUCCGACGAUCCCCUAAGAUGUAUAUUUUAUCUUCUAGUAGUUCCCUUCAAAAUAUAAAUGCUGAUGGAAAUGUCACUUUACAUGCUAGUUAAAAAUCCACGAUGAUAAAACAGCUGAUUAGUAAUAAUCUCAACAGAGGAUUGAGCAUCA
B13: 64289975_64290095_998_3pUTR_ENSG00000112245_ENST00000370650|human|control|control (ssRNA)
RNA: GGGAGUUCUACAGUCCGACGAUCAUUAGGCACCCCAAUUUUAUUGAAUGCAACAGUUGUUUCUAUGACCGUUGGAAUCUUUGAAACGCAGCCGCAUUUUAGGACGAUACUUCUCCAAAUACAGAAGUUGCUUGCUGUUAAAAGCAACAGAGGAUUGAGCAUCA
B14: 125249474_125249594_3487_3pUTR_ENSMUSG00000008683_ENSMUST00000172457|mouse|control|control (ssRNA)
RNA: GGGAGUUCUACAGUCCGACGAUCAGCUUGACCUCAAUCAAGGCAAAAGCUUACACGUGCAUACAUUUAGUAGUUUACUAAGUAAACAAUUAAGGUCGGUGCUGGCUCACCCCAGCCUUCCUUGAUUGUUCUGAGAACGCGUGGCAACAGAGGAUUGAGCAUCA

This experiment concerns the target T1, UNK ZnF1-3. The experiment in a line: nsRBNS (natural sequence RNA bind-n-seq); RBNS binding buffer (assumed for nsRBNS): 25 mM Tris pH 7.5, 150 mM KCl, 3 mM MgCl2, 0.01% Triton X-100, 500 ug/ml BSA, 20 U/ml SUPERase-In, 4 C; UNK is unkempt and MSI1 is Musashi-1; names of the RNAs are library labels; protein concentration not given here; high values mean tight binding.
Molecule B1 registered a binding signal of 1.15 enrichment R.
The figure for B2 is 0.735 enrichment R; for B3 it is 0.91 enrichment R; for B4 it is 1.65 enrichment R.
B5: the binding signal is 1.36 enrichment R.
The figure for B6 is 0.59 enrichment R; for B7 it is 0.743 enrichment R.
For the molecule B8, the binding signal was found to be 0.66 enrichment R.
B9 displayed a binding signal of 1.68 enrichment R.
B10 returned a binding signal of 1.18 enrichment R.
Next, B11: 0.895 enrichment R; B12: 1.21 enrichment R; B13: 0.97 enrichment R.
The figure for B14 is 0.688 enrichment R.

For the origin of these results see paper PMC12136788.
